Source: the RNAGym collection of RNA variant scans (doi:10.1073/pnas.2313332121)
Variants at the floor of the assay are shown more often than the library holds them.

B1: TPR 5TU (parent)
chain: GGAUCUUCUCGAUCUAACAAAAAAGACAAAUCUGCCACAAAGCUUGAGAGCAUCUUCGGAUGCAGAGGCGGCAGCCUUCGGUGGCGCGAUAGCGCCAACGUUCUCAACUAUGACACGCAAAACGCGUGCUCCGUUGAAUGGAGUUUAUCAUG

Variants of: B1
Test: polymerase ribozyme fitness, log enrichment relative to wild type (log ratio); higher = more active; in vitro selection for triplet polymerase activity
How it was run: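 Fitness measures genotype enrichment against wild-type enrichment on a logarithmic scale, with inverse-variance-weighted averaging of replicates. The logarithm is base 2, and genotypes were kept only with ≥10 input reads and ≥1 read per output in Illumina sequencing. The sequenced libraries came from one triplicate in vitro selection round, including frozen incubation at −7 °C, of PCR-built, transcribed mutant libraries of each subunit of a heterodimeric triplet polymerase ribozyme.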

Variant | polymerase ribozyme fitness (log ratio)
U6G C27A U33C C85A G88A U134C | ≤ -4.2
U7A A20C C93G C116G U135G | ≤ -4.2
C5U A29U G62A G67C A142U | ≤ -4.2
U6C C10U A23G C27G G58C C75G G81A C85A C105G G140A | ≤ -4.2
U6A G80C G94A | ≤ -4.2
U6C U31G A39C A150G | ≤ -4.2
C5G U78A A91U G152C | ≤ -4.2
U6A A16U A39C G67C G92U A115G | ≤ -4.2
U6C A37C C87U G88A G136U U144G | ≤ -4.2
C5G U33C A52C C96A G133U A150U | ≤ -4.2
U6A G42A G59U A60G C85A U139C | ≤ -4.2
C5G C93A C99G C118A C132U U134G G143C | ≤ -4.2
U6C C54U C85A G86A | ≤ -4.2
C5U A28C U56A U77C G94A | ≤ -4.2
U6A U13A C14U C32G C51G C69U C93U G124C | ≤ -4.2
C5G C8G U55C C76G G92A C114G A115U | ≤ -4.2
C5G A19G C32A G59C G62C C72A G81U C95A C114U | ≤ -4.2
C5G C85U A120U G152U | ≤ -4.2
C5U A22C A40U G58A G92A U139A G152U | ≤ -4.2
C5G A28G A30C C36U A47U C57U C85A A91U C118U A120G C125G A142G | ≤ -4.2
C5G G59C C85A C93G C131U G140C U151C G152U | ≤ -4.2

Variant | polymerase ribozyme fitness (log ratio)
U6C A16U G42C G70C G92C | ≤ -4.2
C5G C35U A52C G59C A106G C108A C114U A119U A122U G133U | ≤ -4.2
C5U C8G A23U U45A G84C | ≤ -4.2
U6C U61A C85U A97C A120G | -3.12
U6A U9C C10G G58C C85A U146A | ≤ -4.2
U6C U45A C54A | ≤ -4.2
U6G U44G A47U U53C A64C C103A | ≤ -4.2
U6G A37C C105U A107G G141C | ≤ -4.2
C5G C14G C96A | -2.31
U6G C10G A19G U55G C85A G128C G152U | ≤ -4.2
C5U A40C U53A C87G A89U | ≤ -4.2
C5G C14G G25U C54A G92A | ≤ -4.2
C5U U15G A39C G83A U90G C114A U135C | ≤ -4.2
U6A C8G A16C A47U C95A A97G A98C U104A A107C | ≤ -4.2
U7A A26G C75G C93A | -4.13
U6C A29C C57G C75U C93A C114G A120G G141U | ≤ -4.2
U6A C14G A24U G62U C85U G92C A107G A113U | ≤ -4.2
C5U A39U G62A C79G | ≤ -4.2
U6C A40U G74A C93A C95G U111C U127G | ≤ -4.2
C5U A21U U44G A52C U55A G84U | ≤ -4.2
C5A U15C A40G U45A C76U G83A A142C | ≤ -4.2

Variant | polymerase ribozyme fitness (log ratio)
U6C A16G A24U C96A C118U | -3.92
U6G G48U G58A C76G U82C C93U A122C A138G A142G | ≤ -4.2
C5U C8G A22C G81U G86A A97U A106G C116U G141C | ≤ -4.2
U6C G46A A49U G62U G84C A97G U109G | ≤ -4.2
C5G A40U A91U U144C | ≤ -4.2
C5G A12U C57G G58A G74U C75U C105U A147U | ≤ -4.2
C5U G84A C95A | 0.351
C5G U15G A52G | -1.06
C5U A19G C57U G84U G117U A120U | -2.48
U6A A28G | ≤ -4.2
C5G G83A C85A C129G A150G | ≤ -4.2
C5G A52G G83C C93U | -3.55
U6G C14G G25U G74U | ≤ -4.2
U6G C75G A142U | ≤ -4.2
C5G A19U C85G A91G G94A C99U C123A | ≤ -4.2
C5U A52G A60U C93A G126A | ≤ -4.2
C5U G34C G68A G83A C103G G143A | ≤ -4.2
C5G G42A A60G U61A C93U C95G A119C G141A | ≤ -4.2
C5A U53A C54U U77A C93U G133C G140C | ≤ -4.2
U6G A122C | -0.304
U6A C10G A16G A21U C36U G83U U90A C93U A110G G126C | ≤ -4.2

Variant | polymerase ribozyme fitness (log ratio)
U6G A16C G42A | ≤ -4.2
C5G U6A C79U U90G A91G | ≤ -4.2
U6A G42C A49C A52C C75U C85U A91U | ≤ -4.2
U6C C8U U15G | -2.42
U6A C38U A47C A52C C54A A66U U90C A107C A150C | ≤ -4.2
C5G C54U U56A C99U | -1.99
C5G G68U U77C C85U G128U U130C | ≤ -4.2
C5G A19C G50C U134C | ≤ -4.2
U6G C87U C131U | 0.928
U6G C8U G94A C105G C118A G140A | ≤ -4.2
C5U U45A G50U G86C C96U | ≤ -4.2
C5U C8G G83U C123U | ≤ -4.2
U6G A17G A26G A91U U145G U148C A150C | ≤ -4.2
C5G A21U U31A G65C C69G A91C G92C G126U A138G | ≤ -4.2
C5G U15A A41C A64C | ≤ -4.2
U6G A28C A40G A52C A147G A150C | ≤ -4.2
C5G A41G C85U C95U A122U C132A | -3.5
U6A C8G A28U A49C A66G C93U A98G | ≤ -4.2
U6A U44G A98U A107U | -1.58
U6G U78G C93U A98G A142C | -3.99
U6G U15G A40G A49U C76A C79A G92U | ≤ -4.2
